Some of the results follow. Sequences were assembled here from the parent chain. Inactive controls read about 0.05.
B1: TEV protease; numbered along this chain (parent)
chain: MGESLFKGPRDYNPISSSICHLTNESDGHTTSLYGIGFGPFIITNKHLFRRNNGTLVVQSLHGVFKVKDTTTLQQHLVDGRDMIIIRMPKDFPPFPQKLKFREPQREERICLVTTNFQTKSMSSMVSDTSCTFPSGDGIFWKHWIQTKDGQCGSPLVSTRDGFIVGIHSASNFTNTNNYFTSVPKNFMELLTNQEAQQWVSGWRLNADSVLWGGHKVFMVKPEEPFQPVKEATQL

Variants of: B1
Assay: raw area under fraction-flipped curve 0-4 h after induction (AUC4h, not background-subtracted), DNA-recorder readout of cleavage of the substrate (dimensionless); higher = more cleavage of the substrate by the protease variant
Settings: temperature: 34 °C; time window: 0-4 h after rhamnose induction
Experimental: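 In vivo DNA recorder in E. coli TOP10(DE3) ΔrhaA at 34 °C. Each TEVp single-site mutant (parent TEVp 0) is paired with a single-site variant of the 7-mer TEVs (canonical ENLYFQ|S). The substrate sits between flexible linkers in a Bxb1-sfGFP-TEVs-SsrA fusion, so cleavage stabilises Bxb1 and speeds flipping of a recombination array, read by NGS. The value is the raw area under the fraction-flipped curve over 0-4 h after rhamnose induction (AUC4h), with ≥20 reads per time point. It is not background-subtracted; inactive controls average about 0.047.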
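Also: Bxb1 expression induced with 0.2% (w/v) L-rhamnose at OD600 near 0.5, cultures sampled hourly, flipped fraction per protease–substrate barcode pair counted by paired-end Illumina sequencing.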

Variant	area with substrate ENLYAQS	area with substrate ENLYDQS	area with substrate ENLYEQS	area with substrate ENLYGQS	area with substrate ENLYHQS	area with substrate ENLYIQS	area with substrate ENLYKQS	area with substrate ENLYLQS	area with substrate ENLYMQS	area with substrate ENLYNQS	area with substrate ENLYPQS	area with substrate ENLYQQS	area with substrate ENLYRQS	area with substrate ENLYSQS	area with substrate ENLYTQS	area with substrate ENLYVQS	area with substrate ENLYWQS	area with substrate ENLYYQS	area with substrate ENLYCQS
R10K	0.0681	0.0642	0.071	0.0654	0.0727	0.109	0.0675	0.0711	0.0778	0.0655	0.0647	0.0536	0.0792	0.0834	0.0662	0.0957	0.0902	0.072	–
R10S	0.0856	0.0595	0.0599	0.0714	0.0701	0.104	0.0415	0.0863	0.0929	0.0637	0.0761	0.0547	0.0475	0.088	–	0.109	0.0858	0.0563	0.0742
S4D	0.0936	0.0729	0.0792	0.0783	0.0694	0.164	0.0609	–	0.0945	0.0533	0.0721	0.0615	–	0.0813	–	0.148	0.0998	–	0.084
D11W	0.0615	0.0646	0.0561	0.0619	0.0657	0.146	0.0627	–	0.103	0.0883	0.0678	–	–	0.0738	–	0.0882	–	–	–
S16E	0.0766	0.0633	0.0644	0.0658	0.0699	0.106	0.0481	–	0.0807	0.0614	0.0755	–	0.0663	–	–	0.109	0.064	0.0662	0.0876
S16N	0.0715	0.0559	0.065	0.0642	0.0693	0.124	0.0575	–	0.0809	0.0695	0.0759	0.0648	0.0608	0.0706	–	–	0.0755	–	–
S16D	0.0759	0.0588	0.0673	–	0.0679	0.127	0.0625	–	0.0783	0.0653	0.0694	0.041	–	0.0675	0.0752	–	0.0041	0.0505	–
S16I	0.0875	–	0.0722	–	0.0602	0.117	0.0657	0.0711	0.0869	0.069	0.0618	–	0.0588	–	0.0995	0.0814	–	0.0628	–
S16C	0.0659	0.072	0.0678	0.0691	0.0671	0.122	0.0622	–	0.0806	0.0761	0.0593	0.0594	0.0501	0.0841	0.0954	0.117	0.0841	0.072	–
S16T	0.075	0.0645	0.0671	0.0616	0.0685	0.134	0.0538	–	0.0907	0.0656	0.0615	0.0614	–	0.0544	0.0927	0.0913	0.0703	0.0608	0.0824
S16L	0.0723	0.0745	0.108	0.0789	0.0601	0.135	0.0462	0.0736	0.078	0.0753	0.0774	0.0599	0.0564	–	–	0.112	–	–	0.113
S16Y	0.0817	0.0607	0.0793	0.0605	0.0643	0.1	0.0498	0.068	0.0774	0.0583	0.0479	0.0716	0.0728	0.0937	0.0661	0.127	0.0651	–	–
N13V	0.0659	0.0502	0.0619	0.0647	0.0671	0.136	0.0547	0.0728	0.0674	0.0647	0.0756	0.0631	0.0618	0.0905	0.0624	0.16	0.0801	0.0676	0.0926
N13S	0.0729	0.0676	0.0694	0.0636	0.0673	0.121	0.0668	0.0984	0.0717	0.0694	0.0685	0.0555	0.0616	0.0814	0.0839	0.0986	0.0749	0.0577	–
H21P	0.0576	0.0356	0.046	0.0541	0.0502	0.0593	0.0566	0.0481	0.0425	0.0525	0.052	0.0566	0.0545	0.0615	0.0459	0.0573	0.0331	–	–
I19R	0.0529	0.0418	0.0543	0.0564	0.0621	0.0528	–	0.0535	0.0564	0.0474	0.0558	–	0.0373	0.0486	–	0.0402	0.0543	–	0.0593
E25K	0.0693	0.0672	0.0668	0.0606	0.071	0.131	0.0565	–	0.0855	0.065	–	0.0587	0.0662	0.0678	0.0897	0.147	0.0655	0.0658	0.0604
N24H	0.0828	0.0605	–	0.0652	0.0335	0.0921	0.0463	–	0.0819	–	0.0422	0.0458	0.0612	0.0692	–	0.0659	0.0606	–	0.0697
N24Q	0.0697	0.0664	0.0576	0.0651	0.0641	0.108	–	–	0.0853	0.0772	0.0648	–	0.0455	0.0616	–	0.0878	0.0902	0.0641	–
N24R	0.055	0.0567	0.0557	–	0.0532	0.0663	0.065	–	0.0598	0.0576	0.0673	–	0.0553	0.0568	0.0589	–	0.0721	0.0722	0.0578
G8K	0.0715	0.0627	–	0.0687	0.0778	–	0.0588	–	–	–	0.0738	0.0838	0.0594	–	–	0.113	0.0895	–	–
G8F	0.0928	0.0727	0.0658	0.0657	0.0469	–	0.0502	–	0.0993	0.075	0.0765	0.0708	0.067	0.0551	–	0.0656	–	0.0608	–
G28L	0.0798	0.0658	0.0455	0.0593	0.058	0.101	0.0477	0.0713	0.082	0.0689	0.069	0.0611	0.0541	0.0601	0.0629	0.0994	–	–	0.0818

From the supplement of paper PMC12217912
